Patent publication US20110124501A1, “Active compound combinations” (Bayer CropScience AG, priority 2009, published 2011)
Like-named read-outs stand apart in the source and are kept apart here.

Test system: Phytophthora infestans
Assay type: in vivo

(1R)-1,2,3,4-tetrahydronaphthalen-1-yl 2-(1-{[3,5-bis(difluoromethyl)-1H-pyrazol-1-yl]acetyl}piperidin-4-yl)-1,3-thiazole-4-carboxylate [(I-8)]
Efficacy in % found (application rate 0.1 ppm a.i.): 26%
Efficacy in % found (application rate 0.2 ppm a.i.): 52%
